Results as given in the supplement of paper PMC10126150.
Sequences with one replicate were seen in a single cluster, so their values are uncertain.

System: ATP
Assay: switch fluorescence ratio, 500 uM ATP over buffer (Cy3 cluster intensity, sum of 5 cycles each) (fold (ratio)); higher = stronger signal-on switching upon ATP binding; sequences stand for … in TCGTCGGCAGCGTCAGATGTGTATAAGAGACAGTTTTTTTTTTTTTTTTTTTTTTTTT…TC
Conditions: aptamer strand: ATP DNA aptamer (quencher-CACCTGGGGGAGTATTGCGGAGGAAGG + anchor), 100 nM annealed; ATP concentration: 500 uM; one replicate
Outline: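 Five buffer/ATP imaging cycles were run on Cy3-labelled switching-strand clusters on a modified Illumina MiSeq flow-cell, with NaOH stripping and re-annealing between cycles. In each cycle, clusters annealed to 100 nM quencher-labelled ATP aptamer were imaged in selection buffer, then after 15 min with 500 uM ATP at 22 °C. Per cluster, the fluorescence ratio is summed target-cycle over summed buffer-cycle Cy3 intensity, averaged per switch-domain sequence. Only clusters within 100-1000 RFU were kept.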
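Also: ATP exposure 15 min at 22 °C before imaging.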

Sequence	switch fluorescence ratio
AAAAAACCGG	1
AAAAAAGCTA	0.998
AAAAAAGGAA	1
AAAAAAGGCC	1.07
AAAAAAGT	0.956
AAAAAAGTCG	1
AAAAAGTCAG	1.03
AAAAAGTTTA	1
AAAAATATAG	1.05
AAAAATCAGC	0.994
AAAAATCCGC	1.45
AAAACATCTA	0.988
AAAACCATTT	1.03
AAAACCCTTC	1.19
AAAACCTCCG	1.44
AAAACTAAT	0.986
AAAACTGTAT	1.07
AAAAGCGCTA	1.02
AAAAGCGCTT	1.02
AAAAGCGGAA	0.992
AAAAGTACT	1.09
AAAAGTGAGG	1
AAAATAACGG	1.01
AAAATAATGT	0.95
AAAATAGAAA	0.959
AAAATAGACT	0.987

Sequence	switch fluorescence ratio
AAAATAGTTC	0.957
AAAATCATTT	1
AAAATGAGCA	1.05
AAAATGGGCG	1.06
AAAATGTACA	1.04
AAAATGTGGC	1
AAACAAAGTT	1.01
AAACAAGTCT	1
AAACAGTCGA	1.03
AAACATAAG	1.02
AAACATAGTA	1.02
AAACATATGT	0.993
AAACATGATG	0.97
AAACATGTGG	0.986
AAACATTTAG	0.993
AAACCAAAAT	1.04
AAACCCGC	1.04
AAACCCTTAT	1.06
AAACCTCGGA	1.03
AAACCTTCGC	2.9
AAACGATCGT	0.974
AAACGATGTC	0.968
AAACGCGGCA	1.08
AAACGGAAGA	1.04
AAACGTCATT	1.09
AAACGTGT	0.982

Sequence	switch fluorescence ratio
AAACTATGGT	1.04
AAACTCACTG	1.18
AAACTCGCCC	1.14
AAACTTAGGA	1.07
AAACTTGCTA	1.02
AAAGAAACCA	0.96
AAAGACAGGA	1.05
AAAGACATTT	1.03
AAAGACGCGT	0.984
AAAGACTTGC	1.07
AAAGAGAATG	1.04
AAAGATCAGG	1
AAAGATCATA	0.995
AAAGATTAA	1.04
AAAGATTGCA	0.972
AAAGCACGCG	1.06
AAAGCCTAAG	0.976
AAAGCGATTA	1.04
AAAGCGCCT	1.01
AAAGCTCAGG	1.04
AAAGCTTTCT	1.01
AAAGGACTAA	0.989
AAAGGAGACG	1.03
AAAGGCCTTT	1.02
AAAGGCTTGT	0.986
AAAGGGAGGC	1.01

Sequence	switch fluorescence ratio
AAAGGGATCG	0.999
AAAGGGCCGG	1.01
AAAGGTCACG	1.08
AAAGTACTGC	1.15
AAAGTCAATA	1.08
AAAGTCAGGA	0.959
AAAGTCATCG	0.96
AAAGTCCCGG	0.992
AAAGTCTTTG	1.04
AAAGTGCAAT	1.09
AAAGTGGTAC	1.03
AAAGTTATC	1
AAAGTTGA	0.984
AAAGTTTGAA	0.972
AAATAACCTT	1.52
AAATAAGATG	0.942
AAATACAATG	0.995
AAATACATCC	1.02
AAATACGGGG	1.04
AAATATGGA	0.994
AAATATGGT	1.03
AAATCACAA	1.26
AAATCAGAGG	1.02
AAATCAGAGT	0.999
AAATCATCAG	0.999
AAATCCCCTT	0.972

Sequence	switch fluorescence ratio
AAATCGCGAA	1
AAATCGTTGG	1.02
AAATCTACTT	1.03
AAATCTGCCT	1.25
AAATGAATAG	0.958
AAATGACCGA	1.18
AAATGATCAG	0.961
AAATGATGAT	1.02
AAATGATTC	0.99
AAATGATTTC	0.968
AAATGCCAGC	0.988
AAATGCTAGG	0.998
AAATGCTCCC	1.19
AAATGGCCGT	0.973
AAATGGTCAG	0.97
AAATGTATTT	1.01
AAATGTCATA	1.01
AAATGTCTTC	0.942
AAATGTTGAC	1.02
AAATTACAAA	1.04
AAATTCGGAA	1
AAATTCTAGC	1.02
AAATTGACCG	0.991
AAATTGCGAT	1.02
AAATTGCGTG	1.01
AAATTGGTAG	0.986

Sequence	switch fluorescence ratio
AAATTGTGGA	1.03
AAATTTA	0.971
AAATTTCGCT	0.997
AAATTTGTCT	0.96
AACAAAAATG	0.993
AACAAACGAG	1.1
AACACAGAAA	1.01
AACACCGGCG	1.05
AACACTGAC	1.18
AACACTGGGC	0.997
AACAGATATT	1.06
AACAGCAC	1.32
AACAGCACCT	1.37
AACAGGCCCA	1.04
AACAGTTTGG	0.945
AACATAACCT	2.34
AACATCGGTG	0.993
AACATGACGA	1.4
AACATGAGAG	1.07
AACATGAGCT	1.05
AACATGGCCG	1.09
AACATGGTCG	0.901
AACCAGGATC	1
AACCAGTCAG	1.06
AACCAGTCGA	1
AACCATGCGA	1.01

Sequence	switch fluorescence ratio
AACCCACTGA	1.02
AACCCCAAGG	1.4
AACCCCATA	1.08
AACCCGCAAA	4.8
AACCCGGAAC	1.2
AACCCTACAT	1.12
AACCCTAGCG	1.02
AACCCTTTTC	1.09
AACCGATGGA	0.978
AACCGCCGGC	1.14
AACCGCGCAG	1.1
AACCGCGGTC	1.01
AACCGCTTCA	1.1
AACCGGGCAA	2.61
AACCGGTGTT	1.03
AACCGTTACT	1.21
AACCTTAACG	1.17
AACCTTATGA	1.18
AACCTTCATT	2.23
AACCTTCCT	2.02
AACGAACCTT	1.78
AACGAATCGT	0.988
AACGACGTAC	2.08
AACGAGCGCT	0.973
AACGAGGGGC	0.958
AACGATAACG	1.02

Sequence	switch fluorescence ratio
AACGATATTA	0.991
AACGATCACC	1.25
AACGATCGTA	0.99
AACGCCAGGG	1.23
AACGCCCCAA	1.08
AACGCCCCTA	1.04
AACGCGAGGG	1.01
AACGCGCTAA	1.06
AACGCGCTGT	1.07
AACGCGGTAA	1.06
AACGCTTATA	1.13
AACGGAGGGC	0.965
AACGGATTCG	1.02
AACGGCCCAT	1.01
AACGGCTCAA	0.996
AACGGGAACA	1.07
AACGGGTTCG	1
AACGGTATGC	1.08
AACGGTCTCT	0.994
